# Data from the supplement of paper PMC11417369.
# ± gives the standard deviation of the averaged measurements. The list shows a part of the results.
# System: PfAP2-G AP2 domain (GST-tagged)
# Assay: gcPBM binding intensity (ln(normalized median fluorescence intensity)); higher = stronger DNA binding
# Method in brief: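 After 1 h on an Agilent 4 × 180k array of primer-extended double-stranded 36-bp intergenic genomic probes and negative controls, bound GST-tagged P. falciparum DNA-binding domains were detected with Alexa488 anti-GST antibody and scanned at 488 nm. The domains had been expressed in E. coli, and binding took place in 1× PBS with 1% milk, 0.2 mg/ml BSA, 0.5% salmon testes DNA and 0.03% Triton X-100. Binding intensity is the highest Masliner-normalised natural-log median intensity across replicate spots of either probe orientation.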
row,Sequence,gcPBM binding intensity (ln)
1,CACCCACCCAGACACACACACACAAAAAAAAAAAGA [CACACA_site499],10.4 ± 0.42
2,ATATATACTATATTTTAACACACAAAAAAAAAAAAT [CACACA_site8277],10 ± 0.23
3,CTCAATATTATTACTACACACAAATTAATATTTTCC [CACACA_site55],9.93 ± 0.14
4,TCACATGGAAAAAAGTGTACATAATTATGTATAAAT [XGTACX_site2827],11.5 ± 0.82
5,TATAAAAAATAAAAAGTTTAATGAATATTTCTTTTA [TGCATGCA_negctrl_site379],9.44 ± 0.057
6,TTACAAGTAAAAGGTACACACATTATATATACAAAT [CACACA_site8290],11.3 ± 1
7,TAATTTTTATTTTATTTTATTTTTTTTTTTTTTATT [CACACA_negctrl_site1671],9.18 ± 0.057
8,ATATATATAACATATACACACGTTCATATATATATA [CACACA_site4416],9.97 ± 0.18
9,TCCCTAAAAAATGATAAATGGAGACAATTCCGACAA [GTGCAC_negctrl_site209],10.1 ± 0.18
10,TTATATATATTTAAATTTTATCTCACATATATATAT [TGCATGCA_negctrl_site275],9.78 ± 0.14
11,TATAGAAGCGTTCACACACACACATACATACCCATA [CACACA_site4915],10.3 ± 0.35
12,AAAAAACAATCTCATACACACTAGGGATTAATTATT [CACACA_site5051],9.86 ± 0.042
13,AAAAAAAAAAAAATCACACACAATATGAATTTATAG [CACACA_site601],9.67 ± 0.085
14,AATACAATTTCTAGCACACAAAATATTATTATAATT [CACACA_site3223],10.1 ± 0.23
15,ATATAATAGAAGTGTACACACATATTTATGTCTGTA [CACACA_site3121],11.5 ± 0.74
16,AAGCATGGATATTTTACACACATTTCCACGTAACAA [CACACA_site3141],10.16 ± 0.085
17,ATACATTTTTTTTATACGCACACGTCATACTTTTAA [CACACA_site1638],10.5 ± 0.2
18,CTAGCAAATACATACACACACACACCGATACATATA [CACACA_site9164],10.04 ± 0.078
19,ATATTTATTTATATTACACACATGTGCAATTAAACT [CACACA_site6928],10.1 ± 0.16
20,TTTCTTAAAAAAAAAAAAAAAAGAAGATAAATAAAA [CACACA_negctrl_site289],9.55 ± 0.057
21,TTTAACTTATTCAATGCACACATTTTAATAAGATAT [CACACA_site1967],9.99 ± 0.24
22,ACAAGACAGATATATACACACATACATACATACATA [CACACA_site7472],10.06 ± 0.057

row,Sequence,gcPBM binding intensity (ln)
1,ATATAAGTTTATATATGTACATATATATATTATATA [XGTACX_site2068],11.1 ± 0.66
2,GTATTTTTTTTAATATGTACATATAAAATATTTTAT [XGTACX_site8329],11.3 ± 0.67
3,AATACAATTTATAACACACACACAATAATACATATA [CACACA_site1252],10.1 ± 0.13
4,GAGGATATATTATATGTACACACATATATAACGGAT [CACACA_site8361],11.4 ± 0.8
5,AATTCATTTAAAAGTTGTACAAGCTTAATAAAAAAA [XGTACX_site6073],11.4 ± 0.91
6,ATATACACATAAAGTAGTACACCTGAAATTTTTTTT [XGTACX_site2951],11.6 ± 0.79
7,AATTAAAAATATAAATGTACATATATGTAAAACTTT [XGTACX_site123],11 ± 0.54
8,CCCATGCATTTTTGCACACACATATATATATAAATA [CACACA_site1430],10.2 ± 0.3
9,AATATATGAATTAGAAGTACAAATAAATATTTATTT [XGTACX_site2062],11.4 ± 0.93
10,TTAATCATAAAAGTCACACATAATAAGAAAAAGCTT [CACACA_site4616],10.01 ± 0.035
11,GTGCATATATGATATACACACAATATAATAGTATGT [CACACA_site2460],10.1 ± 0.2
12,TGTAGTCTGGAGAAAAGTACATAGTATCTGATAACC [XGTACX_site2018],11.2 ± 0.74
13,CCACATTTTACAGACACACACAATTTATATTACGGT [CACACA_site1894],10.2 ± 0.18
14,AAAAATTTATTTTTAGGTACACAATTGAATTATTTA [XGTACX_site7008],11.2 ± 0.82
15,AAGAGTTTGAAGTTTGCACACTACGTTAAAAATAAA [CACACA_site3939],10 ± 0.21
16,AATATAATGTAATATACACACATATATTTCTCTTTT [CACACA_site5451],9.855 ± 0.064
17,ATAATAAAAAAAAAATGTACATAAATCTAAAATCCT [XGTACX_site5823],11.4 ± 0.86
18,ATATATTTAAATAAAAGTACGTAAAGGTATATTTAA [XGTACX_site8088],11.2 ± 0.69
19,CCTCCCATTTTTACACGTACACATTTAAAATAGACT [XGTACX_site5640],11.7 ± 1.1
20,TGAAGAAAATATTAATGTACATATTATATATATATA [XGTACX_site5497],11.1 ± 0.56
21,TATTAGTCGAATGATGTACACACATACAAAACATTT [CACACA_site9331],11.4 ± 0.89
22,AAAAAAAAAAAGAACTCACACATAATAATGTATATG [CACACA_site4974],9.755 ± 0.049

row,Sequence,gcPBM binding intensity (ln)
1,TTAAAATTATATCTGTGTACATAAATTGTGTAACTA [XGTACX_site1966],11.3 ± 0.71
2,TATTATAAATTAATTTTAAACTTTATTATTATGATA [GTGCAC_negctrl_site389],9.4 ± 0.14
3,GTAATGTCGTCGTTTTGTACATATTTTTATAAAAAG [XGTACX_site2688],11.1 ± 0.57
4,TTTTTAATGATCAGACGTACAGTTATGAAGAAATTT [XGTACX_site6394],11.6 ± 0.8
5,TTGTGTCATATATTTTGTAATCAAAATAATTTTATT [TGCATGCA_negctrl_site307],10.1 ± 0.37
6,TTTTTGTTTCGTTACGCATGCCAAAAGTAAAAATAT [TGCATGCA_site536],10.3 ± 0.28
7,ATTTAAAAAAAAATGGCACACATTTTAATTTTATGT [CACACA_site1740],10.2 ± 0.16
8,ATTAAAATAATATAAACACACATATACTTTTTTCTA [CACACA_site565],9.98 ± 0.16
9,TATTGTTCGTTTAAGGTGCTATTGTTTGCAAAATAT [GTGCAC_site9412],10.3 ± 0.3
10,AAGAGGTTATTACATTCACATAACATCAATATACGT [GTGCAC_negctrl_site264],10 ± 0.13
11,ATAATGTTCCTATGATGTACTTATAATTATCATTTT [XGTACX_site4017],11.3 ± 0.76
12,TGGGAAAACCCCAGAAGTACGCTTAATATAAAAAAT [XGTACX_site697],11.3 ± 0.78
13,ATGCATAAAAGAAATACACACATAAATATGTAAATA [CACACA_site7087],9.94 ± 0.11
14,TTTAAAACCCTAAAAAAAAAAAAAAAAAAAAAAAAA [CACACA_negctrl_site1212],9.72 ± 0.49
15,GTTTGTATAGGTTCATGTACAAAAAAAAAAAAAAAA [XGTACX_site537],11 ± 0.83
16,ACAAAAATATATATATGTACATATATCATCATAATA [XGTACX_site5850],11.1 ± 0.64
17,TTTATTAGAACCGTACGTACATAGTTATTTTTTCAA [XGTACX_site8848],11.5 ± 0.83
18,ATTCATATGTGACACACACACACACGCATAAAAAAA [CACACA_site7515],10.7 ± 0.53
19,TAGCGTACATTTCATTGTAATCATAAAAAATAAAGA [CACACA_negctrl_site447],11.4 ± 1.2
20,TACATATTTTTTATATGTACATATTTTTTATGTGTA [XGTACX_site442],11.4 ± 0.77
21,TATGCTATAATACTCTGTACTTACTAATTTAATAAT [XGTACX_site5926],11.3 ± 0.76
22,ATAAAATAAATGAAAAATGTAAAATGAGAAAAAAAT [CACACA_negctrl_site1026],10.07 ± 0.028

row,Sequence,gcPBM binding intensity (ln)
1,TATATATATATATGGGTGCATTTTTTTGTCCATGTA [GTGCAC_site9868],10.7 ± 0.6
2,ATTTATTTATATTTAGTGCAATACTATTTTTAAATA [GTGCAC_site9886],10.1 ± 0.23
3,ATTTTATCATAATAAAGTACAAAGATGCAAATAATA [XGTACX_site2270],11.1 ± 0.67
4,TTTTATCTCATTCATCAAAATCACCGGAATCATATA [CACACA_negctrl_site357],9.875 ± 0.064
5,TAATAAACAAATTCCAAAATAAATTAAAAGGAAAAT [CACACA_negctrl_site1404],9.555 ± 0.035
6,AGGTATATATTACAAGTGCACTGTAAAATTAAAATT,10.3 ± 0.26
7,TAAGTATACGCATACACACACACACCCAAAAAAAAA [CACACA_site425],10.3 ± 0.24
8,CATTCAATTGAAAAATGTACAAAAATAAACATATGC [XGTACX_site1663],10.8 ± 0.35
9,AATAGGAAGACTATTTTGTATTTGATTTTTTATTCC [GTGCAC_negctrl_site453],9.73 ± 0.12
10,TAAACATACCTATACACACACACACGCACACGCACA [CACACA_site6372],10.3 ± 0.26
11,TTTCTATATTGGCATACATGCAAGAACGAAAAGATT [TGCATGCA_site117],10.2 ± 0.29
12,TAAAAATTGCACAGAAGTACAGTATAAATATATATA [XGTACX_site3421],11.5 ± 1
13,ATAATATATGAGCAATGTACATATTTCTCATTGCAC [XGTACX_site2253],10.9 ± 0.41
14,GTTCCAGGCATTCGTGCGCACAAATAGAAACAATTA [GTGCAC_site9824],10.6 ± 0.41
15,TTATATTAATATATATGTACATATATTTTTTTTATA [XGTACX_site6981],11.3 ± 0.74
16,TTGTGAAACATCAAGAAAAAGAAATAATAAAAAGAA [GTGCAC_negctrl_site38],9.705 ± 0.092
17,GTTGAACATATATGCACACACATAAAATAAAAAAAA [CACACA_site2413],10.3 ± 0.42
18,ACGTAAGCGAATAAAAGTACATATATTAAAAAAAAA [XGTACX_site4458],11.4 ± 0.96
19,TTCTTAAGGAACGAACGTACAGAATAAAAAGTAAAA [XGTACX_site4294],11.2 ± 0.66
20,AAAAGGTATCCACATACGCACACCAAAAAAAAAAAT [CACACA_site347],10.7 ± 0.67
21,TCTTTTTTTTTTTTTTTTTTTTTTTATTTATTCATA [CACACA_negctrl_site1827],9.785 ± 0.092
22,ATACAACAATGTGAATTATATATGGATGGAGAATGA [GTGCAC_negctrl_site148],10 ± 0.028
